# Among all 74,000 compounds or so, about 1,100 (1.5%) were called active. The inconclusive results got no clear call from the source; some entries with a clear call stand among them for comparison. Calls come from the whole dose curve; as a rule, active = well fitted inhibition curve with a large enough effect; inconclusive = small, poorly fitted or top-dose-only effect; inactive = no such curve, though single readings can be large or run the other way. No potency is given beside an inconclusive call; the fits are too rough.
# Biological target: Polyunsaturated fatty acid lipoxygenase ALOX15 (Homo sapiens) (UniProt P16050)
# UniProt P16050, sequence (P16050 whole entry, looked up): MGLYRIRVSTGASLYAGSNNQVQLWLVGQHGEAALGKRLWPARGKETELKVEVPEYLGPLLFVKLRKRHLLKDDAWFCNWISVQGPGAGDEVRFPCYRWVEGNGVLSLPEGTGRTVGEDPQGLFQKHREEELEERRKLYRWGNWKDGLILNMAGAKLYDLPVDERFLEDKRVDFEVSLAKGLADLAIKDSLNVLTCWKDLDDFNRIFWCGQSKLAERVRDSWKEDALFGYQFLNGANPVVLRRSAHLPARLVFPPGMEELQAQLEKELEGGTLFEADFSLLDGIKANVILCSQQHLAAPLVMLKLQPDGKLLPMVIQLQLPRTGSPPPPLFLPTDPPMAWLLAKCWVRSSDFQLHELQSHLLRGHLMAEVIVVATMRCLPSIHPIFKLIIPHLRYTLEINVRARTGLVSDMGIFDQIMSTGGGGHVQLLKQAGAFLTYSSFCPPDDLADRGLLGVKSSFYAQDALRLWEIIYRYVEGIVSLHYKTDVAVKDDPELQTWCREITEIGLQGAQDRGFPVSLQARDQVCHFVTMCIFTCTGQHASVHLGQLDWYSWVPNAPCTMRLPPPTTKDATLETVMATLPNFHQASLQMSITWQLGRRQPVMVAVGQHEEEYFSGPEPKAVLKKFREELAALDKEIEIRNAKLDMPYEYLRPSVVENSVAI
# Test: qHTS Assay for Inhibitors of 15-hLO (15-human lipoxygenase); note: nearly all actives have a fitted effect of over 55% in size
# Conditions: purified 15hLO-1, xylenol orange hydroperoxide absorbance; activity change, negative = inhibition: at 57.1 µM (top of the series) unless noted
# In short: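 Compounds were preincubated 15 min at room temperature with 40 nM purified human enzyme (25 mM Hepes pH 7.5, 0.01% Triton X-100); 50 uM arachidonic acid reacted 6 min. Fe-xylenol orange detection, 30 min, absorbance ratio 573/405 nm.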
# % is set by controls: 0 for no effect and ±100 for the full control effect; potency is the fitted concentration of half-maximal effect; tags give direction and shape of the fitted curve.
Compound,"activity change, negative = inhibition",Potency
COc1ccc(NC(=O)N2CCCC3(CCN(C(=O)c4ccc(OC)cc4)CC3)C2)cc1,inactive: 4.37%,–
Fc1ccc(-c2nc3n(c2-c2ccncc2)CCS3)cc1,–,"inconclusive [inhibitor, full curve, poor fit]"
Cc1nn(-c2ccc(Cl)cc2)c(N)c1C(O)(CSc1nccn1C)C(F)(F)F (stereo not drawn),–,"inconclusive [inhibitor, partial curve]"
Cc1c2c(n3c(nc4ccccc43)c1C#N)N(Cc1ccccn1)CC2,inactive: 9.81%,–
CCCn1c(CCC(=O)O)ccc1-c1ccc(OC)cc1,–,"inconclusive [inhibitor, partial curve]"
CCN(CC)c1ccc(C2CC(=O)Nc3cc(OC)c(OC)cc32)cc1 (stereo not drawn),–,"inconclusive [inhibitor, partial curve, poor fit]"
COc1ccc2sc(NC(=O)CC(C)C)nc2c1,–,active: 3.98 µM
c1ccc(CNc2nc(-c3ccoc3)nc3ccccc23)cc1,inactive: -28.5%,–
CN(C)CCc1c[nH]c2ccc(Cn3cncn3)cc12,inactive: -7.19%,–
Cc1nc2ccccc2c2oc(C(=O)N3CCc4ccccc4C3)cc12,–,active: 20 µM
COc1ccccc1-c1cc(C(F)(F)F)nc(N2CCOCC2)n1,–,"inconclusive [inhibitor, partial curve, poor fit]"
C1=C(CCNc2nnnn2-c2ccccc2)CCCC1,–,"inconclusive [inhibitor, partial curve]"
C=CC[C@@H]1C=C[C@H](O/N=C\[C@@H](C)[C@H](OCc2ccccc2)C(C)C)[C@H](CO)O1,inactive: -0.683% [at 11.4 µM],–
CCOC(=O)C(CCc1ccccc1)NC(C)C(=O)N1C(C(=O)O)CC2CCCC21 (stereo not drawn),–,active: 3.16 µM
N#CCCN1CCN(C(=S)c2ccc(-c3ccc(Cl)c(Cl)c3)o2)CC1,–,"inconclusive [inhibitor, single point]"
COc1ccccc1Cn1nnc2c(=O)[nH]c(C3CCN(C(=O)c4ccc(C)cc4)CC3)nc21,–,"inconclusive [inhibitor, partial curve, poor fit]"
CN(Cc1ccccc1)S(=O)(=O)c1ccc2[nH]cc(C(=O)NCC3CCCO3)c(=O)c2c1 (stereo not drawn),inactive: -17.5%,–
Cc1cccc(Nc2n[nH]c(=S)s2)c1C,–,active: 10 µM
CCOc1ccc(C(=O)OCn2nnc3ccccc3c2=O)cc1OC,inactive: -2.76%,–
CC(C)Sc1nnc(Nc2ccccc2)s1,–,"inconclusive [inhibitor, single point]"
CCCCN(C)c1nc(-c2ccco2)c2c(c1C#N)CC(C)(C)OC2,–,"inconclusive [inhibitor, single point]"
COCc1cc(C)nc2sc(C(=O)Nc3nccs3)c(N)c12,–,"inconclusive [inhibitor, partial curve]"
COc1cccc(-c2ccc3ncnc(NCCN4CCOCC4)c3c2)c1,inactive: 6.61%,–
CCC(c1nnc(SCc2nc3ccccc3s2)n1Cc1ccccc1)N(C)C (stereo not drawn),–,"inconclusive [inhibitor, partial curve]"
NC(=O)C1CCN(C(=O)CN2CCCc3ccccc32)CC1,–,"inconclusive [inhibitor, single point]"
COc1ccccc1CNc1ccc(N2CCCCC2)cc1,–,active: 15.8 µM

Compound,"activity change, negative = inhibition",Potency
CN1CCN(c2ncc3nc(-c4ccc(Cl)cc4)c(=O)n(Cc4ccc(F)cc4)c3n2)CC1,inactive: -4.46%,–
NC(C(=O)O)C(O)C(=O)O (stereo not drawn),inactive: -10.9%,–
CCOC(=O)c1cc(-c2ccco2)nc2c1c(C)nn2CCC#N,–,"inconclusive [inhibitor, partial curve]"
COC(=O)c1ccc(Oc2nc3c(c(=O)n(C)c(=O)n3C)n2CCC(C)C)cc1,inactive: 4.65%,–
CC(C)(C)c1cc(CNC2CS(=O)(=O)C[C@@H]2O)cc(C(C)(C)C)c1O (stereo partly drawn),–,"inconclusive [inhibitor, single point]"
CC(=O)c1sc(NC(=O)c2ccccc2F)nc1C,–,"inconclusive [inhibitor, single point]"
CCn1c(=O)c(C(=O)CN2CCCc3ccccc32)c(N)n(Cc2ccccc2)c1=O,inactive: -26.1%,–
CCOC(=O)c1[nH]c2c(c1C)C(=O)CC(c1ccco1)C2 (stereo not drawn),–,"inconclusive [inhibitor, partial curve]"
O=C(Nc1ccc(-c2nnc(-c3ccccc3)o2)cc1)C(F)(F)F,inactive: 13.8%,–
COc1ccc(C(=O)N2CC=C(c3ccccc3)CC2)cc1S(=O)(=O)N1CCOCC1,–,"inconclusive [inhibitor, single point]"
CC(=O)c1cccc(NC(=O)Nc2cccs2)c1,–,"inconclusive [inhibitor, single point]"
c1cncc(-c2cncnc2NC2CCNCC2)c1,–,active: 31.6 µM
C1CCOC1,inactive: -1.16%,–
COc1ccc(S(=O)(=O)N2c3ccc(Cl)cc3[C@](O)(c3ccccc3Cl)[C@@H]2C(=O)N2CCC[C@H]2C(N)=O)cc1OC,–,active: 15.8 µM
COc1cccc(NC(=O)c2oc3ccccc3c2NC(=O)C(C)(C)C)c1,inactive: -0.186%,–
O=C(c1cccc2c1-c1ccccc1/C2=N/O)N1CCCCC1,inactive: -11.9%,–
COc1ccccc1CNc1ncncc1-c1ccccc1Cl,–,"inconclusive [inhibitor, single point]"
O=C(c1ccco1)c1cn(CC(=O)N2CCCc3ccccc32)c2ccccc12,–,"inconclusive [inhibitor, partial curve]"
Cc1c(C(=O)NC2CCCCC2)sc2nc3ccc(N)cc3n12,inactive: -22.5%,–
CCNc1ncc2nc(CCc3ccccc3)c(=O)n(C)c2n1,–,active: 25.1 µM
CCN(CC)S(=O)(=O)c1cc(C(=O)NC2CCCCC2)ccc1C,inactive: -2.02% [at 11.4 µM],–
COC(=O)C1C(=O)C2=C(CC1C)NC(C)=C(C(=O)OC1CCCC1)C2c1ccc(N(C)C)cc1 (stereo not drawn),–,"inconclusive [inhibitor, partial curve]"
COc1ccc(S(=O)(=O)N2CCCN(CC(=O)Nc3ccc4c(c3)OCO4)CC2)cc1,–,"inconclusive [inhibitor, partial curve]"
CC(=O)Nc1ccc(C2(O)COc3ccccc3O2)cc1 (stereo not drawn),–,"inconclusive [inhibitor, single point]"
CC(C)(C)c1[nH]nc2c1C(c1ccc(OC(=O)c3ccco3)cc1)C(C#N)=C(N)O2 (stereo not drawn),–,"inconclusive [inhibitor, single point]"
COc1ccccc1N1CCN(C(=O)C2C3C=CC4(CN(Cc5ccccc5Cl)C(=O)C24)O3)CC1 (stereo not drawn),–,"inconclusive [inhibitor, single point]"

Compound,"activity change, negative = inhibition",Potency
Cc1ccccc1-c1ccc2ncnc(NCc3cccs3)c2c1,inactive: 32.3%,–
COc1cccc(C(=O)N(Cc2cc3cc(C)ccc3[nH]c2=O)CC2CCCO2)c1 (stereo not drawn),–,"inconclusive [inhibitor, partial curve]"
CCOC(=O)CSc1nnc2n1C(C)(C)Cc1ccccc1-2,inactive: 4.96%,–
C[C@H](c1ccccc1)N1C(=O)[C@H]2[C@@H]3[C@H](O)[C@H](O)CC(=O)[C@H]3CC[C@H]2C1=O,inactive: 6.57% [at 11.4 µM],–
CNc1ccc(O)cc1,–,"inconclusive [inhibitor, full curve]"
O=C(Nc1ccc2c(c1)OCO2)C1Cc2ccccc2CN1S(=O)(=O)c1cccs1 (stereo not drawn),–,"inconclusive [inhibitor, partial curve]"
CCOC(=O)c1c(NC(=O)CSc2nnc(-c3cccnc3)n2Cc2ccco2)sc(C)c1C,inactive: -12.8%,–
CCCc1c(OCCCCc2nn[nH]n2)ccc(C(C)=O)c1O,–,"inconclusive [inhibitor, single point]"
Cc1occc1C(=O)Nc1sc2c(c1C(N)=O)CCCCC2,–,"inconclusive [inhibitor, partial curve]"
CCCn1nnc(NC(=O)c2ccco2)n1,inactive: 8.59%,–
Cc1nn(-c2ccccn2)c(C)c1Oc1ccccc1O,–,"inconclusive [inhibitor, single point]"
COC(=O)c1ccc2ncccc2c1,–,active: 7.94 µM
N#Cc1c(N)oc(-c2ccco2)c1-c1ccco1,–,active: 25.1 µM
O=C(CN1CCCC1)N1c2ccccc2Sc2ccccc21,–,"inconclusive [inhibitor, single point]"
COc1ccc(Cl)cc1NC(=O)CN(C(=O)c1ccco1)C1CCCCC1,inactive: -12.6%,–
c1ccc(Cc2nnc3sc(-c4ccco4)nn23)cc1,–,"inconclusive [inhibitor, single point]"
Oc1ccc(Nc2nc(N3CCCC3)c3ccccc3n2)cc1,–,"inconclusive [inhibitor, single point]"
Cc1ccc2c(c1)-c1c(ssc1=S)C(C)(C)N2C(=O)CSc1nncn1C,–,active: 15.8 µM
CCCC=O,inactive: -2.27%,–
O=C1C(Cl)=C(N2CCCCC2)C(=O)N1c1ccccc1,–,active: 15.8 µM
CCOC(=O)CSC1=C(C#N)C(c2ccccc2F)C(C(C)=O)=C(C)N1 (stereo not drawn),inactive: -16.5%,–
O=C(CCN1c2ccccc2Sc2ccccc21)OCc1nnc(-c2ccccc2)o1,–,"inconclusive [inhibitor, full curve, poor fit]"
CC(=O)C1=C(C)NC(SCC(=O)c2cc(Cl)ccc2Cl)=C(C#N)C1c1ccco1 (stereo not drawn),–,active: 3.98 µM
O=C(Nc1ccccc1C(=O)Nc1ccccc1C(=O)NCc1ccco1)c1ccco1,inactive: -15.6%,–
Cc1cc(C)c(N2CCN(S(=O)(=O)N3CCCCCC3)CC2)c(C)c1,inactive: -26.4%,–
CCN(CC)S(=O)(=O)c1cccc(-c2nnc(SCC(=O)NCCC3=CCCCC3)n2N)c1,inactive: -10.7%,–

# — PubChem BioAssay AID887 (National Center for Advancing Translational Sciences (NCATS), 2007)
